# Laboratory results as given in PMC4336329 (PLoS ONE, 2015).
# Among all 310,000 compounds or so, about 14,000 (4.5%) showed an effect of 50% or more. The effect is printed as a negative number. The list shows a part of the results.
# Target: human ether-à-go-go-related gene (hERG) potassium channel (human, UniProt Q12809)
# Test: primary screen, population patch clamp on CHO cells stably expressing hERG
# 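Also: peak tail current of the secondary pulse compared with the same well before compound.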
# Chain of human ether-à-go-go-related gene (hERG) potassium channel (Q12809 whole entry, looked up): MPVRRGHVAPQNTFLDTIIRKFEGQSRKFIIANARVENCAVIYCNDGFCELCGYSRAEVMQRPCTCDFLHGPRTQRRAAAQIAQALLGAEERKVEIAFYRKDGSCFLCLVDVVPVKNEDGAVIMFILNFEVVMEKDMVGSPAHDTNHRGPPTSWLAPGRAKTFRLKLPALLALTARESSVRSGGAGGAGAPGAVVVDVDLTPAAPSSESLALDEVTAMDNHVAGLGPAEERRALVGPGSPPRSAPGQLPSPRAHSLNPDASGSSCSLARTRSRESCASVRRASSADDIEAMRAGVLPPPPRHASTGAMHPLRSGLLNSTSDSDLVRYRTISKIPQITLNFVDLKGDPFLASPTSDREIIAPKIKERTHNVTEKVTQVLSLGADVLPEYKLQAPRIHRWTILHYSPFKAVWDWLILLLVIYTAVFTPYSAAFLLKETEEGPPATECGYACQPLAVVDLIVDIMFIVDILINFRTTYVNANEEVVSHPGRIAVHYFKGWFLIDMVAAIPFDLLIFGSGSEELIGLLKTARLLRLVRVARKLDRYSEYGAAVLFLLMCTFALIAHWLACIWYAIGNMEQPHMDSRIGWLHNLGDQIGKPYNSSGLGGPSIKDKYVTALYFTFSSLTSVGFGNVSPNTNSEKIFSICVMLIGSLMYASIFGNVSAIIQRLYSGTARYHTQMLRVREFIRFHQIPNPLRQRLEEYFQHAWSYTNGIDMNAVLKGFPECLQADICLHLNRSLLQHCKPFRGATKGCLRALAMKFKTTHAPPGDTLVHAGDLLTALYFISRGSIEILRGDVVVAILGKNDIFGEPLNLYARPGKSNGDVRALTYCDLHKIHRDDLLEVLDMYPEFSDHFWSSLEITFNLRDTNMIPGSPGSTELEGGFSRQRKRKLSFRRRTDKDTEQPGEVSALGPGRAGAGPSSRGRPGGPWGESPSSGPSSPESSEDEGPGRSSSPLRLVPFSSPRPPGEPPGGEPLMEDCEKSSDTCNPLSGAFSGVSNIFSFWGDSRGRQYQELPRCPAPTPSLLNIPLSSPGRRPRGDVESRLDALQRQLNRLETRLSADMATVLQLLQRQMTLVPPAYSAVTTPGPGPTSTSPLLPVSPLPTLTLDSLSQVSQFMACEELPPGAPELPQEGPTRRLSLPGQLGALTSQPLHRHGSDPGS
row,SMILES,"hERG current change (%, negative = inhibition) at 10uM"
1,Cc1c(Cl)c(C(F)(F)F)nn1CC(=O)NCc1ccccc1,27.7%
2,CC(C)CC(=O)CN1C(=O)C2(OCCO2)c2ccccc21,13.2%
3,O=C(Nc1ccc(Cl)c(Cl)c1)N(CCCN1CCOCC1)Cc1cccs1,-78%
4,CCOC(=O)C1CCCN(C(=O)c2cc3c(=O)n4ccccc4nc3s2)C1 (centres unmarked),-3.69%
5,CCC(/C=N/NC(=O)C1COc2ccccc2O1)CC (centres unmarked),1.12%
6,Cc1csc2nc(CNS(=O)(=O)c3ccc4c(c3)OCCO4)cn12,1.54%
7,CCC(C)[C@H](NC(=O)NCc1cccc(OC)c1)C(=O)OC (some centres unmarked),-1.03%
8,OC1CCN(c2ncnc3c2nnn3Cc2c(F)cccc2Cl)CC1,-8.17%
9,CC(=O)c1nn(-c2ccc(C)cc2)cc1C(=O)c1cccc(Br)c1,8.58%
10,COc1ccc(C(=O)O/N=C(\N)Cc2ccc(Cl)cc2)cc1OC,-15.7%
11,CN(CCCC(=O)Nc1ccc(OC(F)F)cc1)S(=O)(=O)c1ccc(F)cc1,-71.3%
12,Cn1cc(C(=O)c2ccccc2C(=O)O)cc1C(=O)C(Cl)(Cl)Cl,15.3%
13,COC(=O)c1[nH]c2ccccc2c1NC(=O)/C=C/c1ccc2c(c1)OCO2,13.8%
14,c1ccc(C2[C@H]3CN(CC4CCCCC4)[C@H](c4ccccc4)C34CC2(c2ccccc2)C4)cc1 (some centres unmarked),8.82%
15,COc1cccc(NC(=O)c2ccccc2N2C(=O)C3C4C=CC(C5CC45)C3C2=O)c1 (centres unmarked),3.88%
16,CC#CCCC(=O)N1C=Cc2ccccc2C1C#N (centres unmarked),-12.3%
17,COc1ccc(C(=O)N2CCC(=O)N(C(CO)Cc3ccccc3)CC2)cc1 (centres unmarked),-5.81%
18,CC1(c2ccc3c(c2)OCCO3)NC(=O)N(CC(=O)c2ccc[nH]2)C1=O (centres unmarked),5.98%
19,O=C(/C=C/c1ccc(Br)cc1)N1CCN(Cc2ccccc2)CC1,-16.9%

row,SMILES,"hERG current change (%, negative = inhibition) at 10uM"
1,Cn1cccc1CNC(=S)Nc1cc(F)cc(F)c1,6.41%
2,O=C(CN(C(=O)Cn1nnc(-c2cccs2)n1)c1ccc2c(c1)OCCO2)NCC1CCCO1 (centres unmarked),-14.7%
3,COc1cccc(CN(C)C(=O)C23CC4CC(CC(NC(C)=O)(C4)C2)C3)c1OC,-2.28%
4,Nc1nn(-c2ccccc2)c(N)c1N=Nc1cccc(F)c1,-10.4%
5,COC(=O)c1sccc1NC(=O)c1ccc(C(C)C)cc1,16.3%
6,Cc1csc(SCC(=O)Nc2ccc3c(c2)OCCO3)n1,14.7%
7,Cc1cccc2nc(-c3cccnc3)c(Nc3ccccc3)n12,-43.1%
8,CCOc1ccccc1NC(=O)c1ccc(NC(=O)c2ccco2)cc1,-4.66%
9,CCCOc1ccc(-c2c(C(=O)N/N=C/c3ccsc3)nnn2-c2nonc2N)cc1,-15.7%
10,O=C(NC(=S)Nc1cc([N+](=O)[O-])ccc1O)C1CC1,2.86%
11,CCCOC(=O)c1c(NC(=O)/C=C/c2cnn(C)c2C)sc(C(=O)OC)c1C,11.8%
12,CCN1C(=O)c2cccc3c(S(=O)(=O)Nc4ccc(OC)cc4OC)ccc1c23,-18.8%
13,COc1ccccc1-n1ccnc(SCC(=O)NCCc2ccccc2)c1=O,13.9%
14,Cc1ccc(N2CC(C(=O)NCc3n[nH]c(=O)c4ccccc34)CC2=O)cc1 (centres unmarked),-23.8%
15,Cc1ccccc1-n1c(C)nc2ccccc2c1=O,2.01%
16,O=c1[nH]c(Cc2ccc(Cl)cc2)nc2ccccc12,20.3%
17,COc1ccc(CN(C)S(=O)(=O)c2c(C)noc2C)cc1OC,2.92%
18,COc1cccc(NC(=O)c2nn(C)c(C(=O)Nc3cccc(OC)c3)c2[N+](=O)[O-])c1,-9.91%
19,CCc1cc2cccc(C)c2nc1SCC(=O)Nc1nonc1C,13.6%

row,SMILES,"hERG current change (%, negative = inhibition) at 10uM"
1,O=[N+]([O-])c1ccc(Cl)cc1NCCCN1CCOCC1,0.725%
2,COc1ccc(-c2noc3c2-c2nc(C4CCCCC4)sc2CC3)cc1,7.61%
3,COc1ccc(-c2nc3n(n2)C(c2cccnc2)C(C(N)=O)=C(C)N3)cc1 (centres unmarked),-17.3%
4,COc1ccc(-c2oc3ncnc(NCCN4CCOCC4)c3c2-c2ccc(OC)cc2)cc1,2.75%
5,O=C(NC1CCCCCCC1)c1ccc(CNc2c(N3CCOCC3)c(=O)c2=O)cc1,-0.985%
6,O=C(COc1cc(F)ccc1[N+](=O)[O-])Nc1ccc(N2CCOCC2)cc1,7.65%
7,CCC(C)(C)NC(=O)C(c1cccc(OC)c1)N(C(=O)c1ccn[nH]1)c1cccc(OC)c1 (centres unmarked),0.649%
8,O=C(CSc1nnc(COc2ccc(Cl)cc2)o1)N1CCOCC1,-10.5%
9,C=CCOc1ccc(CNC(C)(C)CO)cc1OC.Cl,1.65%
10,COCCn1c(=N)c(C(=O)NCCc2ccccc2)cc2c(=O)n3cccc(C)c3nc21,-82.9%
11,CC(=O)c1c(C)[nH]c(C(=O)N2CC(C)CC(C)C2)c1C (centres unmarked),8.66%
12,COc1ccccc1CN1CC(C(=O)NCCN(C)CCc2ccccc2)CCC1=O (centres unmarked),-65.7%
13,COC(=O)c1[nH]c2ccc(Cl)cc2c1NC(=O)CN1CCc2cc(OC)c(OC)cc2C1,5.23%
14,CCCCOP(=O)(OCCCC)C(O)c1ccc(Br)cc1 (centres unmarked),2.27%
15,O=C(CSc1ccc([N+](=O)[O-])cn1)Nc1ccc(N2CCOCC2)cc1,9.17%
16,COc1ccc(N=Nc2cc(C)ccc2O)cc1,0.723%
17,CCSc1nnc(CNC(=O)C23CC4CC(CC(C4)C2)C3)n1C1CCCCC1,10.6%
18,CCC1=NN(C(=O)c2ccc([N+](=O)[O-])cc2)C(O)(c2ccccc2)C1 (centres unmarked),3.73%
